Experimental data as given in the RNAGym collection of RNA variant scans (doi:10.7554/elife.90254).
Read counts are not given, so values of variants with three or more changes are uncertain.

B1: LINE1-full (parent)
chain: UACGUAGGUGGUUUUCCCCUGAUAGUGCUAAGGGGGCCUGGAAGUUUGGACUGGGCAGAGCUCAACACAGCGUGGCAAAGUGGCUGUGGCUAGACUGCCUCUCUGGAUUCCUCGUCACUCAGCAGGGCAUCUCUGAGAGAAAUGCC

Variants of: B1
Experiment: self-cleavage, relative activity (ratio to wild type); higher = more cleavage; in vitro, sequencing; the parent is a self-cleaving ribozyme

Question: Which self-cleavage does the source give for UACGUAGGUGGUUUUCCCCUGAUAGUGCUAAGGGGGCCUGGAAGUUUGGACUGGGCAGAGCUCAACACAGCUUGGCAAAGUGGCUGUUGCUAGACUGCCUCUCUGGACUCCUCGUCACUCAGCAGGGCAUCACUGAGAGAAAAGCC [G72U G88U U108C U132A U143A] here?
Answer: 0.01

Question: With UACGUAGGUGGCUCUCCCCUGAUAGUGCUAAGGGGGCCUGGAAGUUUGGACCGGGCAGAGCUCUACACAGCGUGGCAAAGUGGCUGAGGCUAGACUGCCUCUCUGGAUUCCUCGUCACUCAGCAGGGCAUCUCUGAGAGAAAUGCC [U12C U14C U52C A64U U87A] as the variant, how does the self-cleavage read?
Answer: 0.21

Question: For UACGUAGGUGGUUUUCCCCUGAUAGUGCUAAGGGGGUCUGGAAGUUUGGACUGGGCAGAGCGCAACACAGCGUGGCAAAGUGGCUGUGGCUAGACUGACUCUCUGGAUUCCUCGUCACUCAGCAGGGCAUCUCUGUGAGAAAUGCC [C37U U62G C98A A136U], which self-cleavage is on record?
Answer: 0.06

Question: For UACGUAGGAGGUUUUCCCCUGAUAGUGCUAAGGGGGCCUGGAAGUUUGGACUGGGCAGAGCACAACACAGCGUGGCAAAGUGGCUGUGGCUAGACUGCCUCUCUGGUUUCCUCGUCACUCAGCAGGGCAUCUCUGAGAGAAAUGCC [U9A U62A A107U], which self-cleavage is on record?
Answer: 0.05

Question: For UACGUAGGUGGUUUUCCCCUGAUAGUGCUAAGGGGGCCUGGAAGUUUGGACUGGGCAGAGCGCAACACAGCGUGGCAAAGUGGCUGUGGCUAGACUGCCUCUCUGGAUUCCCCGUCACUCAGCAGGGCAUCUCUGGGAGAAAUGCC [U62G U112C A136G], which self-cleavage is on record?
Answer: 0.13

Question: For CACGUAGGUGGUUUUCCCCUGAUAGUGCUAAGGGGGCCUGGAAGUUUGGACUGGGCAGAGCUCAACACAGCGUGGCAAAGUGGCUGUGGCUAGACUGCCUCUCUGGAUUCCUCGUCACUCAGCAGGGCUUCUCUGAGAGAAGUGCC [U1C A129U A142G], which self-cleavage is on record?
Answer: 0.81

Question: With UACGUAGGUGGUUUUCCCCUGAUAGUGCUAAGGGGGCCUGGAAGUUUGGACUGGGCAGAGCUCAACACAGCGCGGCAAAGUGGCUGCGGCUAAACUGCCUCUCUGGAUUCCUCGUCACUCAGCAGGGCAUCUCUGAGAGAAGUGCC [U73C U87C G93A A142G] as the variant, how does the self-cleavage read?
Answer: 0.1

Question: With UACGUAGGUGGUCUUCCCCUGAUAGUGCUAAGGGGGCCUGGAAGUUUGGACUGGGCAGAGCCCAACACAGCGUGGCAAAGUGGCUGUGGCUAGACUGCCUCUCUGGAUUCCUCGUCACUCAGCAGGGCAACUCUGAGAGAAAUGCC [U13C U62C U130A] as the variant, how does the self-cleavage read?
Answer: 0

Question: With UACGUAGGUGGCUUUCCCCUGAUAGUGCUAAGGGGGCCUGGAAGUUUGGACUGGGCAGAGCUCAACACAGCGUGGCAAAGUGGCUGUGGCUAGACUGCCUCUCAGGACUCCUCGUCACUCAGCAGGGCAUCUCAGAGAGAAAUGCC [U12C U104A U108C U134A] as the variant, how does the self-cleavage read?
Answer: 1.81

Question: With UACGUAGGUGGUUAUCCCCUGAUAGUGCUAAGGGGGCCUGGAAGUUUGGACUGGGCAGGGCUCAACUCAGCGUGGCAAAGAGGCUGUGGCUAGACUGCCUCUCUGGAUUCCUCGUCACUCAGCAGGGCAUCUCUGAGAGAAAUGCC [U14A A59G A67U U81A] as the variant, how does the self-cleavage read?
Answer: 0.04

Question: Which self-cleavage does the source give for UACGUAGGUGGUUUUCCCCUGAUAGUGCUAAGGGGGCCUGGAAGUUUGGACUGGGCAGAGCUCAACACAGCGCGGCAAAGUGGCUGUGGCUAGACUGCCUCUCUGGAUACCUCGUCACUCAGCAGGGCGUCUCUGAGAGAAAUGCC [U73C U109A A129G] here?
Answer: 1.53

Question: Which self-cleavage does the source give for UACGUAGGUGGUUUUCCCCUGAUAGUGCUAAGGGGUCCUGGAAGUUUGGACUGGGCAGAGCUCAACACAGCGUGGCAAAGUGGCUGUGGCCAGACUGCCUCUCUGGACUCCUCGUCACUCAGCAGGGCAUCUCUGAGAGAGAUGCC [G36U U91C U108C A141G] here?
Answer: 0.66

Question: Which self-cleavage does the source give for UACGUAGGUGGUUUCCCCCUGAUAGUGCUAAGGGGGCCUGGAAGUUUGGGCUGGGCAGAGCUCAACACAGCAUGGCAAAGUGGCUGUGGCUAGACUGCCUCUCUGGAUUCCUCGUCACUCAGCAGGGCAUCUCUGAGAGAGAUGCC [U15C A50G G72A A141G] here?
Answer: 0.78

Question: Which self-cleavage does the source give for UACGUAGGUGGUUUUCCCCUGAUAGUGCUAAGGGGGCCCGGAAGUUUGGACUGGGCAGGGCUCAACACAGCGUGGCAAAGUGGCUGUGGCUAGACAGCCUCUCUGGAUUCCUCGUCACUCAGCAGGGCAUCUCUGAGAGAAAUGCC [U39C A59G U96A] here?
Answer: 0.07

Question: For UACGUAGGUGGUUUUCCCCUGAUAGUGCUAAGGGGGCCUGGAAGUUUGGACUGGGCAGAGCCCAACACAGCGUGGCGAAGUGGCUGUGGCUAGACUGCCUCUCUGGAUUCCUCGUCACUCAGCAGGGCAUCUCUGAGGGAAAGGCC [U62C A77G A138G U143G], which self-cleavage is on record?
Answer: 0

Question: For UACGUAGGUGGUUUACCCCUGAUAGUGCUAAGGGGGCCUGGAAGUUCGUACUGGGCAGAGCUCAACACAGCGCGGCAAAGAGGCUGUGGCUAGACUGCCUCUCUGGAUUCCUCGUCACUCAGCAGGGCAUCUCUGAGAGAUGUGCC [U15A U47C G49U U73C U81A A141U A142G], which self-cleavage is on record?
Answer: 1.36

Question: For UACGUAGGUGGUUUUCCCCUGAUAGUGCUAAGGGGGCCUGGAAGUUUGGACUGGGCAGAGCUCAACACAGCGUGGCAAAGUGGCUGAGCCUAGACUGCCUCUCUGGAUUCCUCGACACUCAGCAGGGCAUCUCUGAGAGAAAUGCC [U87A G89C U115A], which self-cleavage is on record?
Answer: 0.05

Question: Which self-cleavage does the source give for UACGUAGGUGGCUUUCCCCUGAUAGUGCUAAGGGGGCCUGGAAGUUUGGACUGGGCAGAGCUCAACACAGCGUGGCAAAGUGGCUGUGGCUAGACUGCCUCUCUGGAUUCCUCGUCACCCAGCAGGGCAUCUCAGAGAGAAAUGCC [U12C U119C U134A] here?
Answer: 1.59

Question: With UACGUAGGUGGUUCUCCCCUGAUAGUGCUAAGGGGGCCUGGAAGCUUGGACUGGGCAGAGCUCAACACAGCGUGGCAAAGUGGCUGUGGCUAGUCUGCCUCUCUGGACUCCUCGUCAUCCAGCAGGGCAUCUCUGAGAGAAAUGCC [U14C U45C A94U U108C C118U U119C] as the variant, how does the self-cleavage read?
Answer: 0.75

Question: Which self-cleavage does the source give for UACGUAGGUGGUUUUCCCCGGAUAGUGCUAAGGGGGCCUGGAAGUUCGGACUGGGCAGAGCUCAACACAGCGUGGCAAAGUGGCUGUGGCUAGACUGCCUCUCUGGAUUCCUCGUCACUCAGCAGGGCAUCUCUGAGAGAGAUGCC [U20G U47C A141G] here?
Answer: 0
